Assay results: the supplement of paper PMC12217912
This is one part of the list. Sequences were assembled here from the parent chain. Values near 0.05 are background.

B1: TEV protease; numbered along this chain (parent)
chain: MGESLFKGPRDYNPISSSICHLTNESDGHTTSLYGIGFGPFIITNKHLFRRNNGTLVVQSLHGVFKVKDTTTLQQHLVDGRDMIIIRMPKDFPPFPQKLKFREPQREERICLVTTNFQTKSMSSMVSDTSCTFPSGDGIFWKHWIQTKDGQCGSPLVSTRDGFIVGIHSASNFTNTNNYFTSVPKNFMELLTNQEAQQWVSGWRLNADSVLWGGHKVFMVKPEEPFQPVKEATQL

Variants of: B1
Test: raw area under fraction-flipped curve 0-4 h after induction (AUC4h, not background-subtracted), DNA-recorder readout of cleavage of the substrate (dimensionless); higher = more cleavage of the substrate by the protease variant
Conditions: temperature: 34 °C; time window: 0-4 h after rhamnose induction
Protocol: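 In vivo DNA recorder in E. coli TOP10(DE3) ΔrhaA at 34 °C. Each TEVp single-site mutant (parent TEVp 0) is paired with a single-site variant of the 7-mer TEVs (canonical ENLYFQ|S). The substrate sits between flexible linkers in a Bxb1-sfGFP-TEVs-SsrA fusion, so cleavage stabilises Bxb1 and speeds flipping of a recombination array, read by NGS. The value is the raw area under the fraction-flipped curve over 0-4 h after rhamnose induction (AUC4h), with ≥20 reads per time point. It is not background-subtracted; inactive controls average about 0.047.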
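Further: Bxb1 expression induced with 0.2% (w/v) L-rhamnose at OD600 near 0.5, cultures sampled hourly, flipped fraction per protease–substrate barcode pair counted by paired-end Illumina sequencing.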

| Variant | area with substrate ENLYAQS | area with substrate ENLYCQS | area with substrate ENLYDQS | area with substrate ENLYEQS | area with substrate ENLYGQS | area with substrate ENLYHQS | area with substrate ENLYKQS | area with substrate ENLYLQS | area with substrate ENLYNQS | area with substrate ENLYPQS | area with substrate ENLYQQS | area with substrate ENLYRQS | area with substrate ENLYVQS | area with substrate ENLYWQS | area with substrate ENLYYQS | area with substrate ENLYIQS | area with substrate ENLYTQS | area with substrate ENLYMQS | area with substrate ENLYSQS |
| --- | --- | --- | --- | --- | --- | --- | --- | --- | --- | --- | --- | --- | --- | --- | --- | --- | --- | --- | --- |
| L73D | 0.0636 | 0.0504 | 0.0673 | 0.0471 | 0.0388 | 0.0505 | 0.054 | 0.0462 | 0.0535 | 0.0641 | 0.0427 | 0.0529 | 0.0517 | 0.0428 | 0.0483 |  |  |  |  |
| L73H | 0.0421 |  | 0.0542 | 0.0584 | 0.0469 |  | 0.0495 |  | 0.0503 | 0.0143 | 0.0518 | 0.0395 | 0.0466 | 0.0447 |  | 0.0537 | 0.0528 |  |  |
| Q74A | 0.0789 | 0.0816 | 0.0574 |  | 0.0685 | 0.0777 | 0.0656 |  | 0.063 | 0.0639 | 0.0442 | 0.0665 |  | 0.0797 | 0.0744 |  | 0.0906 | 0.102 |  |
| Q74M | 0.0687 |  | 0.0686 | 0.0584 | 0.0605 | 0.0642 | 0.0619 | 0.111 | 0.0713 | 0.049 | 0.0695 | 0.0699 | 0.0994 | 0.0739 | 0.0874 | 0.0989 |  | 0.0705 |  |
| H76V | 0.0662 | 0.0855 |  | 0.0703 |  |  | 0.0525 | 0.123 | 0.0864 | 0.0719 |  |  | 0.0714 |  | 0.0657 | 0.103 |  | 0.0641 |  |
| L77C | 0.113 |  |  | 0.063 | 0.0576 | 0.0631 | 0.0697 | 0.0434 | 0.0594 |  | 0.0685 | 0.0717 | 0.0766 | 0.0673 | 0.0545 | 0.0726 |  |  |  |
| V78L | 0.0718 |  | 0.047 | 0.0676 | 0.0709 | 0.0605 | 0.0502 |  |  |  | 0.0649 | 0.066 | 0.127 | 0.0734 | 0.0489 |  | 0.0921 |  |  |
| V78R | 0.0511 |  | 0.0505 | 0.0551 |  | 0.0488 | 0.0654 |  | 0.0557 |  | 0.0562 |  | 0.0499 |  | 0.0453 |  | 0.0529 |  |  |
| D79P | 0.0663 |  |  | 0.052 | 0.0628 | 0.102 |  |  |  |  |  | 0.0526 |  | 0.115 |  | 0.106 |  |  |  |
| G80S | 0.076 |  | 0.0718 | 0.0704 | 0.0616 |  | 0.0909 | 0.0775 | 0.0701 |  |  | 0.0499 |  | 0.0802 | 0.0784 |  |  | 0.102 |  |
| R81Y | 0.0678 |  | 0.0637 | 0.0702 | 0.0648 |  | 0.057 |  | 0.0613 | 0.0501 |  | 0.0567 | 0.0952 | 0.12 | 0.0558 | 0.0628 | 0.0623 |  | 0.0737 |
| D82A | 0.068 |  | 0.0807 |  |  | 0.0599 |  | 0.0509 |  |  |  | 0.0656 | 0.0521 | 0.0523 |  |  |  |  |  |
| I86T | 0.0689 | 0.0466 | 0.054 | 0.0519 | 0.0317 | 0.0741 |  |  |  | 0.065 |  |  |  |  | 0.0509 | 0.0551 | 0.055 |  |  |
| R87A | 0.0844 |  |  |  | 0.0545 |  | 0.0438 |  |  |  |  | 0.0649 | 0.103 |  |  |  |  | 0.0798 |  |
| R87F | 0.0606 |  | 0.0664 | 0.0739 | 0.0619 | 0.0528 | 0.0543 |  | 0.065 | 0.0685 | 0.0712 | 0.0528 |  | 0.0782 |  | 0.132 |  | 0.0846 | 0.0558 |
| R87I | 0.0439 |  | 0.0645 | 0.0585 | 0.0553 | 0.0611 | 0.0379 | 0.0633 | 0.0646 | 0.0704 |  | 0.0503 | 0.0978 | 0.0668 | 0.0594 | 0.0707 |  | 0.0707 | 0.066 |
| K90N | 0.0786 |  |  | 0.0635 | 0.0368 | 0.0638 |  | 0.105 |  | 0.0559 | 0.0729 |  |  | 0.0796 |  |  | 0.0864 |  | 0.0687 |
| K90S | 0.0721 |  | 0.042 | 0.0552 | 0.0689 | 0.0601 | 0.0782 |  | 0.0589 | 0.0632 |  | 0.0669 | 0.139 | 0.0665 | 0.0554 | 0.0984 | 0.0766 | 0.0576 |  |
| D91I | 0.0779 |  |  | 0.0591 |  |  | 0.0537 |  |  |  | 0.0537 | 0.061 |  |  | 0.0487 | 0.112 |  |  | 0.0101 |
| D91K | 0.0508 | 0.0757 |  | 0.0868 | 0.0608 | 0.0876 | 0.061 |  | 0.0617 | 0.0586 | 0.0667 | 0.0603 | 0.112 |  | 0.0417 | 0.133 |  |  | 0.086 |
| D91N | 0.0858 |  |  | 0.0698 |  |  |  |  |  |  |  |  | 0.0618 | 0.103 |  | 0.149 | 0.0757 | 0.104 |  |
| D91R | 0.0598 |  |  |  | 0.0516 |  |  |  |  |  |  |  |  |  |  |  |  |  |  |
| F92D | 0.0641 |  | 0.0612 | 0.0541 | 0.0729 |  | 0.0638 | 0.0508 | 0.0623 | 0.0549 |  |  | 0.0744 | 0.0749 |  | 0.0598 | 0.0564 | 0.052 | 0.0564 |
| F92I | 0.0669 |  | 0.0613 |  | 0.0676 | 0.0627 |  |  | 0.0778 | 0.072 | 0.0665 |  | 0.12 | 0.0746 | 0.0633 | 0.13 | 0.0646 | 0.0793 |  |
| P94R | 0.0499 |  |  | 0.0822 | 0.066 | 0.0574 |  | 0.0722 | 0.0683 | 0.0862 | 0.0585 |  |  | 0.077 |  | 0.179 |  | 0.0827 |  |
| F95C | 0.0645 |  | 0.0552 |  | 0.0707 |  | 0.0404 |  |  |  |  | 0.068 |  |  | 0.0577 | 0.0923 |  |  | 0.0627 |
| F95K | 0.0451 |  |  |  | 0.044 | 0.0656 |  |  | 0.0538 |  | 0.0494 |  |  |  |  | 0.0697 | 0.0627 |  | 0.0465 |
| K100C | 0.0623 |  | 0.0656 | 0.0609 | 0.0547 | 0.0751 | 0.0671 |  | 0.0668 | 0.0829 | 0.0489 | 0.0559 | 0.145 | 0.0963 | 0.0816 | 0.144 |  | 0.102 | 0.0682 |
| F101L | 0.0995 |  | 0.0561 | 0.0595 |  | 0.0679 |  |  |  | 0.0749 | 0.0615 | 0.0455 | 0.0535 |  |  | 0.122 |  |  | 0.0472 |
| R106M | 0.0551 | 0.099 |  | 0.0758 | 0.0685 | 0.0837 |  |  | 0.0652 | 0.064 | 0.0601 | 0.0562 | 0.135 | 0.0969 | 0.103 | 0.186 |  | 0.0954 | 0.0966 |
